Results published in paper PMC4336329 (PLoS ONE, 2015).
In all, about 310,000 compounds went through this assay and about 2,200 (0.71%) showed an effect of 50% or more. Effects have a minus sign here. Some of the results follow.

target: human ether-à-go-go-related gene (hERG) potassium channel (human, UniProt Q12809); experiment: primary screen, population patch clamp on CHO cells stably expressing hERG
Sequence (Q12809 whole entry, looked up): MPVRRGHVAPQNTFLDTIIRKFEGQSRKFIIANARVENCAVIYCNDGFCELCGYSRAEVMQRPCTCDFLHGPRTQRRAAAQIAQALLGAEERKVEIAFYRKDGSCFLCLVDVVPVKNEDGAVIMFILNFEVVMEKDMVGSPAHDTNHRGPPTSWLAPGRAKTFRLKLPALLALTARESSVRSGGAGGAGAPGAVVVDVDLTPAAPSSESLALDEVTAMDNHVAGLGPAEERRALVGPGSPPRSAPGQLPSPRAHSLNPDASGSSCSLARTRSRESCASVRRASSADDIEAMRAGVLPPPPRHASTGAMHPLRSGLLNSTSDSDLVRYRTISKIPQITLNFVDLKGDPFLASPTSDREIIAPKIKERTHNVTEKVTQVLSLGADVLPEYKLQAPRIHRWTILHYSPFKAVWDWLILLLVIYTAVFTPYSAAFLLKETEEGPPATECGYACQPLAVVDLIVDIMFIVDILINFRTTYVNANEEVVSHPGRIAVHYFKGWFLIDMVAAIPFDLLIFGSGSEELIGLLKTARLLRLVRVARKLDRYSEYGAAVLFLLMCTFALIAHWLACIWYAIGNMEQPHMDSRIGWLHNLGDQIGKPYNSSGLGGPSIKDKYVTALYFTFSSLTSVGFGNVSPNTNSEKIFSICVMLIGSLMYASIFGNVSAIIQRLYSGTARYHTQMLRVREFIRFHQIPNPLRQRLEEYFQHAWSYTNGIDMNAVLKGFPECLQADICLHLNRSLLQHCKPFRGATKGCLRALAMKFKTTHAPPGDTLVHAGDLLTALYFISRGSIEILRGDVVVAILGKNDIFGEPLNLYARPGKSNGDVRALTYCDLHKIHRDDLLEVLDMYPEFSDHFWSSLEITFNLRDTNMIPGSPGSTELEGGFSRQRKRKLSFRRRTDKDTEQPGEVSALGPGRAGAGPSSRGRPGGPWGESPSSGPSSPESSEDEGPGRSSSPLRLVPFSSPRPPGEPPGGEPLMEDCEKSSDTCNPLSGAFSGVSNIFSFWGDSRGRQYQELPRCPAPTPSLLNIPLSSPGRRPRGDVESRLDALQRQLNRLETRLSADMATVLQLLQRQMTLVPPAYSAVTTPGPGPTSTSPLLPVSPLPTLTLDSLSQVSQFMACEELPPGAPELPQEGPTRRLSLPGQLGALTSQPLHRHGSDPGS

| SMILES | hERG current change (%, negative = inhibition) at 1uM [%] |
| --- | --- |
| CCOC(=O)N1CCN(C(=O)CCN2C(=O)/C(=C\c3ccccc3OC)SC2=S)CC1 | 9.05 |
| CC(Oc1ccccc1[N+](=O)[O-])C(=O)N/N=C/c1ccoc1 (stereo not shown) | 12.7 |
| O=C1NC(=O)C(CC(=O)N(c2ccccc2)C2(C(=O)NC3CCCC3)CCCCC2)N1 (stereo not shown) | 0.897 |
| O=C(CN(CCc1ccccc1)S(=O)(=O)c1ccc(Br)cc1)N/N=C/c1ccc2c(c1)OCO2 | 8.79 |
| CC(=O)N(/N=C1\Sc2ccccc2C1=O)c1cccc(C)c1 | 10.5 |
| Cc1ccc(CSc2nc3c(c(SCC(=O)O)n2)CCCC3)cc1 | 5.16 |
| COc1ccc(NC(=O)Nc2ccccc2C)c(OC)c1 | 12.4 |
| O=C(Nc1cccc(Cl)c1)c1cnccn1 | 13.4 |
| CCN(CC)S(=O)(=O)c1ccc(N2CCOCC2)c(NC(=O)c2ccc(NC(C)=O)cc2)c1 | 11.1 |
| COCCNC(=O)CCc1c(C)nc2nc(-c3cc(OC)cc(OC)c3)nn2c1C | 13.1 |
| COc1ccc(NC(=O)Nc2cccc3ccccc23)cc1S(N)(=O)=O | 13.9 |
| Cc1ccc(C2CN(c3ccccc3)CC2C(=O)c2ccc(F)cc2)cc1 (stereo not shown) | -13.9 |
| C=Cn1c(C(=O)O)ccc1-c1ccc(CC)cc1 | 11 |
| CCOC(=O)c1c(C)c(-c2ccccc2)n(CC(=O)N2CCCC2)c1C | 7.93 |
| CC(C)C(=O)N(c1cc2sc(=O)oc2c2ccccc12)S(=O)(=O)c1cccs1 | 12.4 |
| Cc1cc(C)cc(OCC(=O)N/N=C/c2ccc([N+](=O)[O-])o2)c1 | 1.66 |
| CC12C=CC(=O)C=C1CCC1C2C(=O)C[C@@]2(C)C1CCC2(O)C(=O)CO (stereo partly shown) | 20.9 |
| CC(=O)[N-]S(=O)(=O)c1ccc(N)cc1.O.[Na+] | 14.7 |
| CCSc1nc2c(c(-c3ccc(C)o3)c1C#N)CCCC2 | 12.3 |
| Cc1nnn(C23CC4CC(CC(CC(=O)Nc5ccc(C)c(Cl)c5)(C4)C2)C3)n1 | 11 |
| Cc1c(NC(=S)NC(NC(=O)CC(C)C)C(Cl)(Cl)Cl)c(=O)n(-c2ccccc2)n1C (stereo not shown) | 9.92 |
| CC(C(=O)OCc1nnc(-c2ccccc2)o1)N1C(=O)C2CCCCC2C1=O (stereo not shown) | 7.48 |
| COc1ccc(/C=C2\SC(=S)N(Cc3cccnc3)C2=O)cc1C | -1.52 |
| CCOC(=O)c1oc2ccc(Br)cc2c1NC(=O)CN1CCN(C)CC1 | -33.8 |
| O=CN/N=C/c1c(O)ccc2ccccc12 | 12.3 |
| Cc1ccc(C(=O)COC(=O)c2cc(Cl)nc3ccccc23)cc1C | 10.3 |
| Cc1nc(N2CCCCC2)sc1C(=O)c1ccc(SCCO)c([N+](=O)[O-])c1 | 3.58 |
| Cc1ccc(F)cc1NC(=S)NCCc1ccccc1 | 6.46 |

| SMILES | hERG current change (%, negative = inhibition) at 1uM [%] |
| --- | --- |
| COc1ccc(S(=O)(=O)NCc2ccccn2)cc1NC(=O)c1ccccc1F | 13.2 |
| CCOC(=O)COc1cccc2c(=O)n(CC(=O)NCc3ccc4c(c3)OCO4)ccc12 | 5.88 |
| O=C(Nc1ccc(S(=O)(=O)Nc2nccs2)cc1)c1c(F)c(F)c(F)c(F)c1F | -13.5 |
| Cc1ccc(S(=O)(=O)N/N=c2\oc3ccccc3cc2C(=O)Nc2cccc(C)c2)cc1 | -36.5 |
| Cc1ccc(OCC(=O)Nc2ccc(NC(=O)c3cccs3)cc2)c(C)c1 | 13.9 |
| Cc1ccccc1NC(=O)/C(C#N)=C/c1ccc[nH]1 | 17.6 |
| CC1=NNC(=O)C1CCC(=O)N/N=C\c1cccc(Cl)c1 (stereo not shown) | 15.8 |
| CN(Cc1ccccc1)C(=O)COc1ccc(Br)cc1Cl | -3.2 |
| CS(=O)(=O)c1ccc2nc(NC3(C(F)(F)F)N=C4SCCN4C3=O)sc2c1 (stereo not shown) | 5.94 |
| CCCC(C)NC(=O)c1sc2nc3n(c(=O)c2c1C)CCC3 (stereo not shown) | 3.01 |
| O=C(Nc1ccc2nc(-c3ccc(Br)o3)[nH]c2c1)c1cccs1 | -3.23 |
| CS(=O)(=O)Nc1ccc(S(=O)(=O)NC2CCCCC2)cc1 | 7.13 |
| O=C(NCC(=O)N(c1ccc2c(c1)OCCO2)C(C(=O)NC1CCCC1)c1ccco1)c1ccco1 (stereo not shown) | 4.82 |
| Oc1[nH]c2ccc(Br)cc2c1N=NC(=S)Nc1ccc(F)cc1 | 14.1 |
| CC1(c2ccc(OC(F)F)cc2)NC(=O)N(CC(=O)NC2CCCC2)C1=O (stereo not shown) | -4.99 |
| O=C(N1CCOCC1)N1CCN(S(=O)(=O)c2cccc([N+](=O)[O-])c2)CC1 | 11.2 |
| Cc1ccc(NC(=O)CSCC(=O)Nc2ccccc2C(=O)N2CCCCC2)cc1 | 13.5 |
| NC(=S)Nc1nc2ccccc2s1 | 17.3 |
| CSc1nc(N)c2c3c(sc2n1)CN(C)CC3 | -2.24 |
| COc1ccc(N2CCN(Cc3nc4cc(Cl)ccc4c(=O)[nH]3)CC2)cc1 | 9.03 |
| O=C(Cc1ccccc1)NN1C(=O)C2C3C=CC(C3)[C@@H]2C1=O (stereo partly shown) | 4.09 |
| C=CCNCCCCOc1ccc(OCc2ccccc2)cc1.O=C(O)C(=O)O | -8.04 |
| S=C(NCC1CCCO1)N1CCN(c2ccc(Cl)c(Cl)c2)CC1 (stereo not shown) | 12.4 |
| O=C1C2CCCN2C(c2ccccc2)N1c1nccs1 (stereo not shown) | 17.3 |
| Cc1ccc(C2c3[nH]c4ccccc4c3C[C@H]3C(=O)N(c4ccccc4C(=O)N4CCC(C(=O)O)CC4)C(=O)N23)cc1 (stereo partly shown) | 10.1 |
| O=C(CCNC(=O)c1ccc(Br)cc1)Nc1ccccc1N1CCOCC1 | -3.73 |
| Cc1ccc(C(=O)Oc2ccc(/C=N/NC(N)=O)cc2)cc1 | 11.6 |
